Laboratory results reported in patent US20210020264A1.

Assays:
[1] = molecular target: PD-1 (as in the cell binding assay); assay: cell binding assay
[2] = molecular target: PD-1 (as in the cell binding assay); assay: ratio of apparent affinity constants from the cell binding assay, activatable antibody against anti-PD-1 monoclonal antibody

| Kapp (apparent affinity constant) [1] [nM] | Kmask (Kapp PD-1 ActAb/Kapp PD-1 mAb) [2] | Binder |
| --- | --- | --- |
| 0.32 | – | anti-PD-1 monoclonal antibody (antibody, human IgG4 S228P, kappa) heavy: EVQLVESGGGLVQPGGSLRLSCAASGFTFSGYAMSWVRQAPGKGLEWVAYISNSGGNAHYADSVKGRFTISRDNSKNTLYLQMNSLRAEDTAVYYCTREDYGTSPFVYWGQGTLVTVSSASTKGPSVFPLAPCSRSTSESTAALGCLVKDYFPEPVTVSWNSGALTSGVHTFPAVLQSSGLYSLSSVVTVPSSSLGTKTYTCNVDHKPSNTKVDKRV[human IgG4 Fc with S228P (EU numbers) not spelt out] light: DIQLTQSPSSLSASVGDRVTITCRASESVDAYGISFMNWFQQKPGKAPKLLIYAASNQGSGVPSRFSGSGSGTDFTLTISSMQPEDFATYYCQQSKDVPWTFGQGTKLEIKRTVAAPSVFIFPPSDEQLKSGTASVVCLLNNFYPREAKVQWKVDNALQSGNSQESVTEQDSKDSTYSLSSTLTLSKADYEKHKVYACEVTHQGLSSPVTKSFNRGEC |
| 26.7 | 83.3 | anti-PD-1 activatable antibody (antibody, human IgG4 S228P, kappa) heavy: EVQLVESGGGLVQPGGSLRLSCAASGFTFSGYAMSWVRQAPGKGLEWVAYISNSGGNAHYADSVKGRFTISRDNSKNTLYLQMNSLRAEDTAVYYCTREDYGTSPFVYWGQGTLVTVSSASTKGPSVFPLAPCSRSTSESTAALGCLVKDYFPEPVTVSWNSGALTSGVHTFPAVLQSSGLYSLSSVVTVPSSSLGTKTYTCNVDHKPSNTKVDKRV[human IgG4 Fc with S228P (EU numbers) not spelt out] light: QGQSGQGTSYCSIEHYPCNTHHGGGSSGGSISSGLLSGRSDNPGGGSDIQLTQSPSSLSASVGDRVTITCRASESVDAYGISFMNWFQQKPGKAPKLLIYAASNQGSGVPSRFSGSGSGTDFTLTISSMQPEDFATYYCQQSKDVPWTFGQGTKLEIKRTVAAPSVFIFPPSDEQLKSGTASVVCLLNNFYPREAKVQWKVDNALQSGNSQESVTEQDSKDSTYSLSSTLTLSKADYEKHKVYACEVTHQGLSSPVTKSFNRGEC |
